# Hit rate of the full screen: of about 45,000 compounds, about 200 (0.44%) were called active. About 7% were inconclusive and are not listed. The call rests on the fitted dose curve; in most records, active means well fitted activation curve with a large enough effect; inconclusive means small, poorly fitted or top-dose-only effect; inactive means no such curve, though single readings can be large or run the other way. The list shows a part of the results.
# Assay: qHTS of TDP-43 Inhibitors: NCGC Sytravon Library Screen; further: 0% is about no effect; nearly all actives have a fitted effect of over 55% in size
# Conditions: yeast TDP-43 toxicity rescue, BacTiter-Glo growth, 24 h; series mostly up to 46.1 µM; growth rescue (activation): at the top concentration
# Outline: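 TDP-43-expressing yeast, pregrown in raffinose, seeded at OD600 0.02 in galactose medium with compound for 24 hr at 30 deg C. Growth read by BacTiter-Glo luminescence, so rescue of toxicity appears as activation.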
row,Compound,growth rescue (activation)
1,CC1(C)C(=O)Nc2ccccc2N1C(=O)COc1cccnc1[N+](=O)[O-],inactive: -5.78%
2,Cc1nc(-c2ccccc2)sc1-c1nc(-c2ccncc2)ncc1S(=O)(=O)c1ccccc1,inactive: 16.6%
3,CC(=O)c1ccc(-c2cnc3c(NC=O)cc(-c4cccc(C(=O)N(C)C)c4)cn23)cc1,inactive: 10.9%
4,N#Cc1ccc(OCC(=O)OCC(=O)c2ccccc2)cc1,inactive: 25.8%
5,CC(C)[C@H](NS(=O)(=O)c1ccc2c(c1)OCCO2)C(=O)OCC(=O)Nc1cccc(Cl)c1Cl,inactive: 9.94%
6,COc1cc(C(=O)NC(CCSC)C(=O)OCc2cc([N+](=O)[O-])cc3c2OCOC3)cc(OC)c1OC (configuration not stated),inactive: 10.3%
7,COc1cccc(C(=O)NNC(=O)C2CCCO2)c1 (configuration not stated),inactive: -11.8%
8,CC(=NNC(=O)c1ccc(NS(=O)(=O)c2ccc(Br)cc2)cc1)c1cccnc1,inactive: 14.9%
9,O=C(/C=C/c1ccc([N+](=O)[O-])cc1)OCC(=O)N1CCCC1,inactive: -7.81%
10,O=C1ON=C(c2ccc([N+](=O)[O-])cc2)/C1=C/c1ccccc1O,inactive: 20.6%
11,Cc1ccnc(NS(=O)(=O)c2cnc(Cl)c(Br)c2)c1,inactive: -27.1%
12,CC(=O)Nc1ccc(NC(=O)c2nc(-c3ccccc3)oc2C)cc1,inactive: 0.657%
13,CCCc1nn2c(=O)cc(O)nc2s1,inactive: -0.896%
14,COc1cccc(Oc2coc3cc(OC(=O)N4CCOCC4)ccc3c2=O)c1,inactive: 13.3%
15,Cc1cccc(N2CCN(C(=O)/C=C/c3cccs3)CC2C)c1 (configuration not stated),inactive: 25.4%
16,Cc1cccc(NC(=O)CSc2nc(C)c(Cc3ccccc3)c(=O)[nH]2)c1C,inactive: 9.98%
17,COCc1ccc(CN2CCC(n3nccc3NC(=O)CCOc3ccccc3)CC2)o1,inactive: -7.49%
18,CCNS(=O)(=O)c1cc(OC)c(Cl)cc1OC,inactive: -12.5%
19,COc1ccc(C(NC(=O)CN2CCCCCC2)c2ccc(OC)cc2)cc1,inactive: 4.01%
20,Cc1ncc([N+](=O)[O-])n1CC(=O)Nc1ccc(Cl)cc1,inactive: -7.82%
21,CSc1ccc(CN(C)CC(=O)NCCc2ccccc2)cc1,inactive: 3.49%
22,COc1ccc(CCNC(=O)Nc2ccc3c(c2)c(=O)n(C)n3Cc2ccc(Cl)cc2)cc1OC,inactive: -9.9%
23,COC(=O)C1=C(C)N(Cc2ccc(C)cc2)C(=O)/C1=C\c1cc(OC)c(OC)c(OC)c1,inactive: 10.7%
24,COc1ccc(CCNC(=O)C2=C(C)C(=O)OC23CCCCC3)c(OC)c1,inactive: 6.93%
25,Cc1cc(NS(=O)(=O)c2ccc(NC(=O)c3cccnc3)cc2)nc(C)n1,inactive: -6%
26,O=C(O)Cn1nnc(COc2ccccc2)n1,inactive: 24.8%

row,Compound,growth rescue (activation)
1,Cc1coc2c(C)c3oc(=O)c(CCC(=O)NCCC(=O)O)c(C)c3cc12,inactive: 3.7%
2,O=C(NCc1ccco1)c1ccc2sc([C@@H]3O[C@H](CO)[C@@H](O)[C@H]3O)nc2c1,inactive: -8.85%
3,CCOc1ccc(N=C2NC(=O)SC2CC(=O)OC)cc1 (configuration not stated),inactive: -1%
4,COc1ccc(S(=O)(=O)N(C)c2ccc(C(=O)N3CCCCC3)cc2)cc1,inactive: 12%
5,CCN(CC(=O)Nc1ccc(NC(C)=O)cc1)C(=O)COc1ccc(C(=O)c2ccccc2)cc1,inactive: 10.9%
6,Cn1cc(Br)c(C(=O)NNC(=O)Cc2ccc(Cl)cc2)n1,inactive: 7.02%
7,COCCN1Cc2cccc(C(=O)NCCc3ccccc3)c2C1=O,inactive: 10.8%
8,CCOC(=O)/C=C1\SCC(=O)N1CC(=O)NC(C)C,inactive: 1.71%
9,CC(=O)NNC(=S)Nc1cc(S(=O)(=O)N(C)C)ccc1C,inactive: 8.46%
10,CCN(CC)P(=O)(Nc1ccc(Br)cc1)c1c(C)nn(CCC#N)c1NC(=O)c1ccc(Cl)cc1 (configuration not stated),inactive: -2.82%
11,CNc1c(NS(=O)(=O)c2ccc(F)cc2)c(=O)oc2ccccc12,inactive: -7.48%
12,CC(Oc1ccc(-c2ccccc2)c(F)c1)c1ccn(S(=O)(=O)c2cccc3ccccc23)n1 (configuration not stated),inactive: 26.2%
13,Cc1ccc(S(=O)(=O)N2CCCCC2)cc1C(=O)N1CCCC1,inactive: 6.86%
14,NNC(=O)c1nnn(-c2nonc2N)c1CN1CCc2ccccc2C1,inactive: -20.5%
15,Cc1ccccc1C(=O)N1CCC(C(=O)NC2CCCC2)CC1,inactive: 14.4%
16,Cc1ccc(C(c2nnnn2C2CCCC2)N2c3ccccc3CC2C)cc1 (configuration not stated),inactive: -8.01%
17,Cc1nc2oc(C(=O)c3ccccc3)c(N)c2c2c1COC(C)(C)C2,inactive: 42.3%
18,Cc1ccc(-n2nc(C)c3c(C)c(CCC(=O)NCc4ccccc4Cl)c(C)nc32)cc1,inactive: 7.15%
19,COCCn1c(Cc2ccccc2)nnc1SCc1ccc([N+](=O)[O-])cc1,inactive: -7.82%
20,NS(=O)(=O)c1ccc(CNC(=S)NC(=O)c2ccco2)cc1,inactive: 4.69%
21,COc1ccc(CCNC(=O)CN(c2ccc(OC)c(OC)c2)S(=O)(=O)c2ccc(C)cc2)cc1,inactive: 19.7%
22,CCCNC(=S)N1CCN(C(c2ccccc2)c2ccccc2)CC1,inactive: -21.1%
23,Cc1nccn1CC(=O)N/N=C/c1ccccc1O,inactive: 4.45%
24,COCCCn1c(=O)/c(=C\c2ccccc2OC(F)F)s/c1=C(/C#N)C(N)=O,inactive: -6.76%
25,CC1=C(C(=O)OCc2ccccc2)C(c2cccnc2)c2c(n(C)c(=O)n(C)c2=O)N1 (configuration not stated),inactive: -9.68%
26,O=C1CN(C(=O)/C=C/c2cc(Br)ccc2F)CCN1,inactive: -6.22%
